PubChem BioAssay AID493208 (National Center for Advancing Translational Sciences (NCATS), 2011)
About 340 (0.77%) of roughly 44,000 compounds were called active. About 5% were inconclusive and are not listed. Calls follow the shape of the dose curve; as a rule, active = well fitted inhibition curve with a large enough effect; inconclusive = small, poorly fitted or top-dose-only effect; inactive = flat fitted curve, though single readings scatter. This is one part of the list.

Test: Acumen qHTS Assay for Inhibitors of the mTORC1 Signaling Pathway in MEF (Tsc2-/-, p53-/-) Cells: Sytravon;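 also: plate controls were DMSO for no effect and rapamycin for full effect; nearly all actives have a fitted effect of over 50% in size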
Settings: phospho-rpS6 immunofluorescence/PI, 24 h; series mostly up to 38.3 µM; activity change, negative = inhibition: at the top concentration
In short: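 Immunofluorescence of rpS6 phosphorylation in Tsc2-/-, p53-/- MEFs after 24 h compound exposure, normalized to propidium iodide signal. Activity is expressed as % positive cells, thresholded with 7.5 nM rapamycin.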

Activity change, negative = inhibition, inactive:
Cn1c(=O)cc(OCC(=O)NCc2ccc(F)cc2Cl)c2ccccc21 -1%
Cc1csc2nc(COc3ccccc3NC(=O)c3ccccc3Cl)cc(=O)n12 -0.16%
Cc1ccc2nc(-c3ccc(Cl)c(NC(=O)c4ccc(Br)o4)c3)oc2c1 6.52%
CSc1nc2c([nH]c3ccccc32)c(=O)n1-c1ccc(C)cc1 -15.7%
CSc1ccc(CCNC(=O)c2ccc(CS(=O)Cc3ccc(Cl)cc3)o2)cc1 (stereo unspecified) -5.76%
O=C(COCc1cc(-c2ccc3c(c2)OCO3)on1)NCc1ccc(F)cc1 -12.9%
Cc1ccc(Cl)cc1NC(=O)c1cc(S(=O)(=O)N2CCCCCC2)cn1C -0.628%
Cc1cccc(-c2nc(CSCC(=O)N3CCN(c4cccc(C)c4C)CC3)c(C)o2)c1 -6.55%
Cc1ccc(C)c(N2CCN(S(=O)(=O)c3cc(C(=O)Nc4cc(Cl)cc(Cl)c4)ccc3F)CC2)c1 -0.905%
O=C(CSc1nc(-c2cccs2)nc2cc(=O)[nH]n12)Nc1ccccc1Cl -4.86%
COc1cc(C2CC(=O)Nc3c2c(C)nn3-c2nncc(-c3ccccc3)n2)cc(OC)c1OC (stereo unspecified) -10.4%
O=C(Nc1ccccc1Cl)c1cc2c(-c3ccccc3)nn(-c3ccccc3)c2s1 -1.28%
CCN(c1ccccc1)c1nnc(NC(=O)Nc2ccc(C)cc2)s1 -0.284%
O=C(OCc1cc(=O)n2nc(-c3cccs3)sc2n1)c1ccc(F)cc1 13.6%
CCOc1ccc(C(=O)Nc2cccc(-c3nc4cccnc4s3)c2C)cc1OCC -2.57%
COc1ccc(Nc2ncc3c(n2)CCN(Cc2ccc(Br)s2)C3)c(OC)c1 16%
Cc1ccc2nc3c(cc(C#N)c(=O)n3-c3nnc(SCc4ccccc4Cl)s3)c(=O)n2c1 -1.07%
COc1ccc(/C=C/c2nc(C#N)c(N3CCC(C)CC3)o2)cc1OC -18.9%
CC(=O)N1N=C(c2ccc(C)cc2)CC1c1cn(-c2ccccc2)nc1-c1cccs1 (stereo unspecified) 4.29%
CCn1cc(C(=O)NCc2ccccc2)c(=O)c2cc(S(=O)(=O)N3CCCCCC3)ccc21 -16%
COc1ccc(NC(=O)c2ccc(COc3ccccc3OC)o2)cc1OC 0.225%
COc1ccc(Br)cc1CNC(=O)C1CCCCN1S(=O)(=O)c1ccc(F)cc1 (stereo unspecified) -11.3%
Cc1ccc(OCc2nc3ccccc3n2Cc2ccccc2Cl)cc1 -15.2%
COc1cccc(CNC(=O)CCC(=O)N2Cc3cccc(OC)c3Oc3ncccc32)c1OC -3.95%
CCCNC(=O)CCc1c(C)nc2nc(-c3cc(OC)cc(OC)c3)nn2c1C -11.9%
O=C(Cc1ccccc1)Nc1c(C(=O)Nc2ccccc2F)oc2ccccc12 0.223%
CCc1ccc(-c2[nH]c3c(c2-c2sc(C)c(C(=O)OC)c2O)c(=O)n(C)c(=O)n3C)cc1 -5.16%
COc1cccc2sc(N(Cc3cccnc3)C(=O)C3COc4ccccc4O3)nc12 (stereo unspecified) -0.606%
COc1ccc(N(C)C(=O)CCS(=O)(=O)c2cccc3nsnc23)cc1 0.436%
Cc1c(NC(=O)c2ccccc2F)cccc1-c1nc2cccnc2s1 3.81%
Cc1ccc(Nc2nc3ccccc3c3nncn23)cc1C -14.8%
O=C(Cn1ncc2c(=O)oc3ccccc3c21)NCc1ccc(Cl)cc1 4.06%
CC(=O)N1CCCc2cc(S(=O)(=O)N(C)CC(=O)Nc3ccc(Cl)cc3C)ccc21 -7.13%
Cc1ccc(C)c(NC(=O)c2cc(S(=O)(=O)NCCC3=CCCCC3)ccc2F)c1 -9.3%
COc1ccc(CNC(=O)C(C(C)C)N2Cc3ccccc3C2=O)cc1 (stereo unspecified) 1.74%
CCCN(CCC)C(=O)C1CCN(c2ncnc3c2nc2n3CCCCC2)CC1 0.875%
CCOc1ccc(CCNC(=O)CN(c2ccc(C)cc2)S(=O)(=O)N(C)C)cc1OCC 1.91%
O=c1c(S(=O)(=O)c2ccccc2)cn(Cc2ccc(F)cc2)c2cc(N3CCCCC3)c(F)cc12 -0.13%
CC1Cn2cc(C(=O)Nc3cccc(C(F)(F)F)c3)c(=O)c3c(Cl)ccc(c32)O1 (stereo unspecified) -0.111%
COC(=O)c1nnn(CC(=O)Nc2ccc(Br)c(C)c2)c1N 0.0312%
Cc1ccc(-c2onc(C)c2C)cc1S(=O)(=O)NC1CCCCC1 -6.68%
Cc1ccc(-n2c(=O)c3c(c4cc(C)ccc4n3C)n(CC(=O)Nc3cc(C)cc(C)c3)c2=O)cc1 -1.05%
CCOC(=O)c1c(-c2ccc(OC)cc2)oc2ccc(OCc3ccc(C(=O)OC)cc3)cc12 -2.46%
CCNc1c(NC(=O)c2cc(OCC)c(OCC)c(OCC)c2)c(=O)oc2ccccc12 -0.859%
CCC(=O)N1CCc2cc(Br)cc(S(=O)(=O)NCCc3ccccc3)c21 6.77%
CCOC(=O)c1c(NC(=O)COc2ccc(F)cc2)sc2c1CCC(C)C2 (stereo unspecified) 4.73%
CC(C)(C)C(=O)Nc1cccc(C(=O)OCc2cc(=O)n3nc(C4CCCCC4)sc3n2)c1 0%
O=C(CSc1nc2ccccc2n1Cc1ccccc1Cl)NCc1ccccc1 4.74%
N#C/C(=C\c1ccc(-c2cc(Cl)ccc2Cl)o1)C(=O)Nc1ccccc1C(=O)O 1.45%
CCCCN(C)CCNC(=O)c1nn(-c2ccc(OC)cc2)c(=O)c2c1c1ccccc1n2C -1.08%
CCOC(=O)c1[nH]cnc1C(=O)Nc1ccc(F)cc1 1.71%
COc1cccc(CNC(=O)CCNS(=O)(=O)c2ccc3c(c2)oc(=O)n3C)c1 0.17%
Cc1cc(C)c(Cn2c(C(O)c3ccccc3)nc3ccccc32)c(C)c1 (stereo unspecified) -7.67%
CCN(Cc1ccccc1)C(=O)CN1C(=O)COc2ccc(S(=O)(=O)N3CCCCCC3)cc21 -12.8%
CCn1cc2nc(SCc3ccccc3F)n(Cc3ccc(C)cc3)c(=O)c2n1 -9.11%
Cc1ccc(NC(=O)CCS(=O)(=O)c2cccc3nsnc23)c(C)c1 0.171%
CCOc1ccc(NC(=O)CCS(=O)(=O)c2ccc3c(c2)n(C)c(=O)c(=O)n3C)cc1 -0.309%
CCCS(=O)(=O)Nc1cc2c(cc1NCc1ccccc1)n(C)c(=O)n2C -17.8%
Cc1ccc2cccc(NC(=O)C(C)(C)Oc3ccc(Br)cc3)c2n1 1.15%
CCOc1ccc(NC(=O)CSc2nc(-c3ccc(F)cc3)cc(C(F)(F)F)c2C#N)cc1 4.81%
CCOC(=O)c1ccccc1NC(=O)Cn1c2ncccc2c(=O)n1-c1ccccc1 2.02%
CCOC(=O)CSc1nc2ccc(NC(=O)c3ccccc3)cc2s1 -0.233%
COc1cc(-c2nnc(SCCOc3ccc(C)c(Cl)c3)o2)cc(OC)c1OC -0.518%
Cc1ccc(C)c(N2CCN(Cc3nnc(-c4ccccc4)o3)CC2)c1 3.81%
COc1cccc(C(=O)c2cn(CC(=O)Nc3cccc(C)c3C)c3nc(C)ccc3c2=O)c1 -3.31%
CCOCCCn1c(SCC(=O)Nc2ccc(OC)cc2OC)nc2ccccc2c1=O -1.26%
Cc1cccc(C)c1NC(=O)Cn1nc(C)c2sc3ccccc3c2c1=O -18.1%
COc1ccc(-c2cn3c(n2)sc2cc(C(=O)Nc4cc(Cl)ccc4C)ccc23)cc1 0.38%
CCc1ccc(C(=O)Nc2ccc3nn(-c4ccc(C)c(Cl)c4)nc3c2)cc1 -5.8%
Cc1ccc(CN2CCc3nc(SCC(=O)Nc4cccc(C)c4C)[nH]c(=O)c3C2)cc1 1.76%
COc1ccc(N2CC(NC(=O)c3ccc(S(=O)(=O)N4CCCCC4)cc3)CC2=O)cc1OC (stereo unspecified) -3.94%
Cc1cccc(NC(=O)c2cc(S(=O)(=O)N3CCC4(CC3)OCCO4)ccc2F)c1 -1.21%
O=C(CCNS(=O)(=O)c1ccc2c(c1)CCN2C(=O)C1CC1)Nc1ccc(F)cc1F -14.5%
CCOC(=O)c1ccc(NC(=O)Cn2cc(C(=O)c3ccc(Cl)cc3)c(=O)c3ccc(C)nc32)cc1 2.72%
COc1cc(OC)cc(-c2nc3nc(C)c(CCC(=O)Nc4cc(F)ccc4F)c(C)n3n2)c1 -1.69%
CCSc1ncc(Cl)c(C(=O)Nc2c(C(=O)c3ccccc3)oc3ccccc23)n1 -5.98%
Cc1nc2cc(-c3ccccc3)nn2c(C)c1CCC(=O)N1CCN(c2ccccc2)CC1 2.97%
O=C(NCCc1csc(-c2ccc(F)cc2)n1)c1ccc(Br)o1 0.419%
Cc1ccccc1CN1CCN(CC(=O)NCc2ccccc2Cl)C1=O 10.1%
COc1ccc2oc(-c3ccc(C)c(NC(=O)Cc4ccc(Cl)cc4)c3)nc2c1 -0.723%
Cc1c(NC(=O)c2cc(=O)c3cc(Cl)ccc3o2)c(=O)n(-c2ccccc2)n1C -2.97%
Cn1cnc2c(=O)oc3ccc(S(=O)(=O)N4CCN(c5cccc(Cl)c5)CC4)cc3c21 -1.56%
Cc1cccc(-c2nc(Cn3c(SCc4cccc(C(F)(F)F)c4)nc4ccncc43)c(C)o2)c1 -7.14%
Fc1ccc2c(c1)NC(c1ccncc1)=NC(c1cccs1)=N2 5.65%
Cc1nc2c(C(=O)NC(C)c3ccccc3)cnn2c(C)c1Cc1ccccc1 (stereo unspecified) 3.62%
COC(=O)c1cc2occc2n1Cc1nc(-c2ccc(C)cc2)oc1C -1.21%
CC(C)c1ccc(N2C(=O)CSC23C(=O)N(Cc2ccccc2)c2ccccc23)cc1 (stereo unspecified) 1.57%
Cc1cc(NS(=O)(=O)c2ccc3oc(=O)c4ncn(C)c4c3c2)ccc1Br 2%
Cc1ccc(NC(=O)Cn2c(=O)n(Cc3nc(C)no3)c(=O)c3cc4c(cc32)OCO4)cc1 2.07%
O=C(/C=C/c1ccccc1Cl)Nc1nc(-c2cccs2)ns1 0.178%
COc1ccc(NC(=O)N2CCN(S(=O)(=O)c3ccc4c(ccn4C)c3)CC2)c(OC)c1 -6.42%
Cc1nc2ccn(Cc3ccco3)c(=O)c2cc1C(=O)N1CCN(c2ccc(F)cc2)CC1 -4.79%
COc1cccc(CNC(=O)C(C)n2c(=O)cc(-c3ccccc3)c3c(C)nn(C)c32)c1 (stereo unspecified) -7.64%
CN(Cc1ccccc1)C(=O)CSc1nc(-c2ccc(F)cc2)cc(C(F)(F)F)n1 -11.9%
CCCC(CCC)C(=O)NC1CC(=O)N(c2ccc3c(c2)OCCO3)C1 (stereo unspecified) 2.66%
O=C(Nc1nnc(S(=O)(=O)N2CCc3ccccc32)s1)c1cccc(Cl)c1 4.58%
